# Measured values published in PMC6212790.
# The other results are listed elsewhere or left out. At the low end of the ranking the order means little.
# Target: T1, GST-Rok (full length) (UniProt O34857)
# T1 sequence: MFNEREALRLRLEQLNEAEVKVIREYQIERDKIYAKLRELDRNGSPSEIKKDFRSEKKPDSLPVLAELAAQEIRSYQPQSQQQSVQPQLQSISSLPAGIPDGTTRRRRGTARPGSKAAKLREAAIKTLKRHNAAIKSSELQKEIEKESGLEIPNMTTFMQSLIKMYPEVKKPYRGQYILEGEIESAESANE
# Experiment: protein binding microarray;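 further: rank score from −0.5 (least bound) to 0.5 (best bound)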
# Conditions: Rok is a gene silencer of Bacillus subtilis; high values mean tight binding; most listed sequences are background and not binding sites; double strand, one strand shown
row,Sequence,binding signal
1,CTGCACTA,0.0357 E-score
2,TCTCTCAA,-0.0745 E-score
3,ATCCCTGG,-0.27 E-score
4,AGGTTCGG,-0.0855 E-score
5,AGCGAATC,-0.027 E-score
6,ACTACGAT,0.335 E-score
7,ACCATCGG,-0.056 E-score
8,AGAGGGGG,-0.422 E-score
9,GATCCCTA,-0.206 E-score
10,ATATGCAT,0.276 E-score
11,ATGAGAGC,-0.141 E-score
12,ACAAGACG,-0.0878 E-score
13,ACGCCGTA,-0.0717 E-score
14,ACTGTGAC,0.0552 E-score
15,GAAGAATA,0.121 E-score
16,GGACAGCC,-0.301 E-score
17,AGAGTCGA,-0.0761 E-score
18,TAAACAGA,-0.1 E-score
19,GCTATCTA,0.33 E-score
20,CCCGGAGA,-0.232 E-score
21,CGACTCCA,-0.18 E-score
22,ACCGGAAT,0.189 E-score

row,Sequence,binding signal
1,AGTATGTA,0.323 E-score
2,AATATGGT,0.215 E-score
3,TATTCAAA,0.0337 E-score
4,ACCGGTGC,-0.301 E-score
5,AGTCGTAC,0.0618 E-score
6,TACGGTCA,0.238 E-score
7,CCTCGGGC,-0.201 E-score
8,ATAATCTA,0.352 E-score
9,CCTAGCAG,-0.23 E-score
10,CCACACTA,0.203 E-score
11,CACCAATA,0.192 E-score
12,TAACATAA,0.15 E-score
13,CCAGCAAA,-0.241 E-score
14,CCTTATCA,0.137 E-score
15,ACTATTGG,0.208 E-score
16,GCGTACGA,0.0471 E-score
17,CGGGCGCC,-0.435 E-score
18,CCTGTTCG,-0.118 E-score
19,CGCGGCTC,-0.293 E-score
20,GGCAAGCC,-0.313 E-score
21,AAGAGATG,-0.0176 E-score
22,TATGAACA,0.0378 E-score

row,Sequence,binding signal
1,AAAGTGTC,-0.00949 E-score
2,GCAGGAAC,-0.0908 E-score
3,ATTTCACC,-0.0341 E-score
4,ACGTTACT,0.0871 E-score
5,CTATACTA,0.288 E-score
6,GTACAACA,0.0355 E-score
7,CAGCATTA,0.152 E-score
8,ACAACACC,-0.0309 E-score
9,AGCTTAAA,0.0809 E-score
10,GACGCAGA,-0.102 E-score
11,GGTTACAA,0.12 E-score
12,GGTCGCTA,-0.0341 E-score
13,AGTCATCC,-0.081 E-score
14,CAGTGTGG,-0.177 E-score
15,GACTAGAC,-0.353 E-score
16,CAGTGGCC,-0.139 E-score
17,GATGCTTA,-0.014 E-score
18,CTATGTTA,0.285 E-score
19,CCCTGTCG,-0.116 E-score
20,GACCGCAA,0.0358 E-score
21,CACTGTTA,0.0957 E-score
22,ACAAGAGC,-0.151 E-score

row,Sequence,binding signal
1,CCATGCCA,-0.243 E-score
2,CATACCAA,0.214 E-score
3,CCTAATTA,0.228 E-score
4,CCCCCCCA,-0.406 E-score
5,CCGTCAAC,-0.163 E-score
6,CTGGCCCC,-0.304 E-score
7,CAAAGTAA,0.19 E-score
8,ACCGGCCT,-0.135 E-score
9,CGCCCTCC,-0.396 E-score
10,CGGATCTC,-0.0657 E-score
11,AGGCGGGA,-0.284 E-score
12,TCGTCTAA,-0.11 E-score
13,ACGGACGC,-0.266 E-score
14,GTTGTCCA,-0.109 E-score
15,ACTTAGAT,0.178 E-score
16,ACAGGTAC,0.127 E-score
17,GTTGGTGA,-0.00845 E-score
18,TATAGCAA,0.279 E-score
19,AGTCTATA,0.199 E-score
20,GCCAAACA,-0.0134 E-score
21,ACCTTGCA,0.00836 E-score
22,GTGCAAAA,0.0784 E-score

row,Sequence,binding signal
1,CCCGATAG,0.0924 E-score
2,CCCTCAAG,-0.33 E-score
3,CCGTGAGC,-0.28 E-score
4,CCAGGGAA,-0.236 E-score
5,GAGCGGAA,-0.238 E-score
6,TCCACAGA,-0.0426 E-score
7,AGCTTCAA,-0.0974 E-score
8,CAGGGGCG,-0.326 E-score
9,AACGGGCT,-0.12 E-score
10,CGCCCGCA,-0.278 E-score
11,AACGTTCT,0.178 E-score
12,CCCAGTTA,-0.191 E-score
13,ATTCCGGG,-0.12 E-score
14,ACTATATC,0.331 E-score
15,ATGGAATA,0.178 E-score
16,AAAGTTCC,0.0577 E-score
17,ACGGCATC,-0.114 E-score
18,CGTACGGC,-0.00666 E-score
19,GGGATCAC,-0.332 E-score
20,GTACTCAC,-0.12 E-score
21,ACGGCTCA,-0.117 E-score
22,AAGACGCG,-0.209 E-score
